From the supplement of paper PMC8728848
Some of the results follow.

Experiments:
Assay in all cases: glycan array binding signal (z-score within array); higher = stronger binding
Details in all cases: glycan notation: IUPAC condensed, linker removed
Gal(a1-4)GlcNAc = molecular target: Gal(a1-4)GlcNAc
Outline: (§1)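 The Consortium for Functional Glycomics database supplied 3228 glycan arrays, of which those lacking an available protein sequence were dropped. The binding signal, a within-array Z-score, was averaged across arrays of the same protein sequence and across linkers. Negative scores can be read as non-binding.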

Gal(a1-6)Glc = molecular target: Gal(a1-6)Glc
Outline: as §1

Gal(b1-2)Gal = molecular target: Gal(b1-2)Gal
Outline: as §1

Gal(b1-3)Gal = molecular target: Gal(b1-3)Gal
Outline: as §1

Gal(b1-3)GalNAc = molecular target: Gal(b1-3)GalNAc
Outline: as §1

[1] = molecular target: Gal(b1-3)GalNAc(b1-3)Gal(a1-4)Gal(b1-4)Glc
Outline: as §1

[2] = molecular target: Gal(b1-3)GalNAc(b1-3)Gal(b1-4)Glc
Outline: as §1

[3] = molecular target: Gal(b1-3)GalNAc(b1-3)Gal(b1-4)GlcNAc
Outline: as §1

[4] = molecular target: Gal(b1-3)GalNAc(b1-4)Gal(b1-4)Glc
Outline: as §1

[5] = molecular target: Gal(b1-3)GalNAc(b1-4)[Neu5Ac(a2-3)]Gal(b1-4)Glc
Outline: as §1

[6] = molecular target: Gal(b1-3)[Fuc(a1-4)]GlcNAc
Outline: as §1

[7] = molecular target: Gal(b1-3)[Fuc(a1-4)]GlcNAc(b1-3)Gal(b1-4)GlcNAc
Outline: as §1

[8] = molecular target: Gal(b1-3)[Fuc(a1-4)]GlcNAc(b1-3)Gal(b1-4)[Fuc(a1-3)]GlcNAc
Outline: as §1

[9] = molecular target: Gal(b1-3)[GlcNAc(b1-6)]GalNAc
Outline: as §1

[10] = molecular target: Gal(b1-3)[GlcNAc(b1-6)]GlcNAc
Outline: as §1

[11] = molecular target: Gal(b1-3)[Neu5Ac(a2-6)]GalNAc
Outline: as §1

[12] = molecular target: Gal(b1-3)[Neu5Ac(a2-6)]GlcNAc
Outline: as §1

[13] = molecular target: Gal(b1-3)[Neu5Ac(a2-6)]GlcNAc(a1-4)Gal(b1-4)Glc
Outline: as §1

[14] = molecular target: Gal(b1-3)[Neu5Ac(b2-6)]GlcNAc
Outline: as §1

[15] = molecular target: Gal(b1-4)GalNAc(a1-3)[Fuc(a1-2)]Gal(b1-4)GlcNAc
Outline: as §1

[16] = molecular target: Gal(b1-4)GalNAc(b1-3)[Fuc(a1-2)]Gal(b1-4)GlcNAc
Outline: as §1

Gal(b1-4)Glc = molecular target: Gal(b1-4)Glc
Outline: as §1

Gal(b1-4)Glc6S = molecular target: Gal(b1-4)Glc6S
Outline: as §1

Gal(b1-4)GlcNAc = molecular target: Gal(b1-4)GlcNAc
Outline: as §1

[17] = molecular target: Gal(b1-4)GlcNAc(b1-2)Man(a1-3)[Gal(b1-4)GlcNAc(b1-2)Man(a1-6)]Man(b1-4)GlcNAc(b1-4)GlcNAc
Outline: as §1

[18] = molecular target: Gal(b1-4)GlcNAc(b1-3)Gal(b1-4)Glc
Outline: as §1

[19] = molecular target: Gal(b1-4)GlcNAc(b1-3)Gal(b1-4)GlcNAc
Outline: as §1

[20] = molecular target: Gal(b1-4)GlcNAc(b1-3)Gal(b1-4)GlcNAc(b1-3)Gal(b1-4)GlcNAc
Outline: as §1

[21] = molecular target: Gal(b1-4)GlcNAc(b1-3)Gal(b1-4)[Fuc(a1-3)]GlcNAc(b1-3)Gal(b1-4)[Fuc(a1-3)]GlcNAc
Outline: as §1

[22] = molecular target: Gal(b1-4)GlcNAc(b1-3)GalNAc
Outline: as §1

[23] = molecular target: Gal(b1-4)GlcNAc(b1-3)[Gal(b1-4)GlcNAc(b1-6)]GalNAc
Outline: as §1

[24] = molecular target: Gal(b1-4)GlcNAc(b1-6)GalNAc
Outline: as §1

[25] = molecular target: Gal(b1-4)GlcNAc(b1-6)[Gal(b1-3)]GalNAc
Outline: as §1

[26] = molecular target: Gal(b1-4)GlcNAc(b1-6)[Gal(b1-3)]GlcNAc
Outline: as §1

Gal3S(b1-3)GalNAc = molecular target: Gal3S(b1-3)GalNAc
Outline: as §1

Gal3S(b1-3)GlcNAc = molecular target: Gal3S(b1-3)GlcNAc
Outline: as §1

[27] = molecular target: Gal3S(b1-3)[Fuc(a1-4)]GlcNAc
Outline: as §1

Gal3S(b1-4)Glc = molecular target: Gal3S(b1-4)Glc
Outline: as §1

Gal3S(b1-4)Glc6S = molecular target: Gal3S(b1-4)Glc6S
Outline: as §1

Gal3S(b1-4)GlcNAc = molecular target: Gal3S(b1-4)GlcNAc
Outline: as §1

Gal3S(b1-4)GlcNAc6S = molecular target: Gal3S(b1-4)GlcNAc6S
Outline: as §1

Gal3S6S(b1-4)GlcNAc = molecular target: Gal3S6S(b1-4)GlcNAc
Outline: as §1

Gal3S6S(b1-4)GlcNAc6S = molecular target: Gal3S6S(b1-4)GlcNAc6S
Outline: as §1

Gal4S(b1-4)GlcNAc = molecular target: Gal4S(b1-4)GlcNAc
Outline: as §1

Gal4S6S(b1-4)GlcNAc = molecular target: Gal4S6S(b1-4)GlcNAc
Outline: as §1

B1: HMGB1 (Rattus norvegicus), P63159 (protein)
chain: MGKGDPKKPRGKMSSYAFFVQTCREEHKKKHPDASVNFSEFSKKCSERWKTMSAKEKGKFEDMAKADKARYEREMKTYIPPKGETKKKFKDPNAPKRPPSAFFLFCSEYRPKIKGEHPGLSIGDVAKKLGEMWNNTAADDKQPYEKKAAKLKEKYEKDIAAYRAKGKPDAAKKGVVKAEKSKKKKEEEDDEEDEEDEEEEEEEEDEDEEEDDDDE
glycan array binding signal (z-score) (Gal(a1-4)GlcNAc): -0.082
glycan array binding signal (z-score) (Gal(a1-6)Glc): -0.488
glycan array binding signal (z-score) (Gal(b1-2)Gal): -0.433
glycan array binding signal (z-score) (Gal(b1-3)Gal): -0.292
glycan array binding signal (z-score) (Gal(b1-3)GalNAc): -0.393
glycan array binding signal (z-score) [1]: -0.447
glycan array binding signal (z-score) [2]: 0.641
glycan array binding signal (z-score) [3]: -0.406
glycan array binding signal (z-score) [4]: -0.082
glycan array binding signal (z-score) [5]: -0.193
glycan array binding signal (z-score) [6]: -0.265
glycan array binding signal (z-score) [7]: -0.004
glycan array binding signal (z-score) [8]: -0.599
glycan array binding signal (z-score) [9]: -0.335
glycan array binding signal (z-score) [10]: -0.685
glycan array binding signal (z-score) [11]: -0.379
glycan array binding signal (z-score) [12]: -0.352
glycan array binding signal (z-score) [13]: 0.108
glycan array binding signal (z-score) [14]: -0.219
glycan array binding signal (z-score) [15]: 0.027
glycan array binding signal (z-score) [16]: -0.322
glycan array binding signal (z-score) (Gal(b1-4)Glc): -0.487
glycan array binding signal (z-score) (Gal(b1-4)Glc6S): 0.01
glycan array binding signal (z-score) (Gal(b1-4)GlcNAc): -0.621
glycan array binding signal (z-score) [17]: 0.168
glycan array binding signal (z-score) [18]: 0.051
glycan array binding signal (z-score) [19]: -0.641
glycan array binding signal (z-score) [20]: -0.588
glycan array binding signal (z-score) [21]: -0.054
glycan array binding signal (z-score) [22]: -0.647
glycan array binding signal (z-score) [23]: 0.497
glycan array binding signal (z-score) [24]: -0.594
glycan array binding signal (z-score) [25]: 0.225
glycan array binding signal (z-score) [26]: 2.37
glycan array binding signal (z-score) (Gal3S(b1-3)GalNAc): -0.4
glycan array binding signal (z-score) (Gal3S(b1-3)GlcNAc): -0.574
glycan array binding signal (z-score) [27]: 0.205
glycan array binding signal (z-score) (Gal3S(b1-4)Glc): -0.225
glycan array binding signal (z-score) (Gal3S(b1-4)Glc6S): 0.187
glycan array binding signal (z-score) (Gal3S(b1-4)GlcNAc): 0.957
glycan array binding signal (z-score) (Gal3S(b1-4)GlcNAc6S): -0.518
glycan array binding signal (z-score) (Gal3S6S(b1-4)GlcNAc): -0.159
glycan array binding signal (z-score) (Gal3S6S(b1-4)GlcNAc6S): 0.389
glycan array binding signal (z-score) (Gal4S(b1-4)GlcNAc): -0.583
glycan array binding signal (z-score) (Gal4S6S(b1-4)GlcNAc): -0.337
